Source: PubChem BioAssay (Tox21)
“And” between values parts separate entries of the source, which are not always exact repeats. Equal values may be shown once. The shares of active, inactive and inconclusive entries below differ from those in the screen. A potency beside an inconclusive call is a rough fit, not a confirmed value. A structure can be active in one record and inactive in another. The source made the active and inactive calls. Calls come from the whole dose curve; as a rule, active = well fitted curve in the direction sought with a large enough effect in the repeat runs; inconclusive = weak or mixed curves; inactive = no such curve, though single readings can be large; an effect the other way counts as inactive or inconclusive.

target: Nuclear receptor subfamily 1 group I member 2 (Homo sapiens) (UniProt O75469); assay: Human pregnane X receptor (PXR) activation by small molecules, qHTS assay (AID 1346985); conditions: DPX-2 HepG2 CYP3A4-luciferase, 24 h; series mostly up to 38.3 µM; note: nearly all actives have a fitted effect of over 40% in size
In short: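 DPX-2 cells (HepG2 co-transfected with a PXR response element and a CYP3A4-promoter luciferase construct) were seeded at 2,000 per well, rested 5 hr at 37C, then exposed to DMSO-dissolved compounds for 24 hr. Activation was read as luciferase luminescence.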
Potency is the fitted concentration of half-maximal effect; tags give direction and shape of the fitted curve.

Question: For `C[C@H](CCC(=O)O)[C@H]1CC[C@H]2[C@@H]3[C@H](O)C[C@@H]4C[C@H](O)CC[C@]4(C)[C@H]3CC[C@]12C`, which Potency is on record?
Answer: inactive

Question: How did the Potency turn out when `Cc1cccc(C)c1NC(=O)CN1CCN(CCCC(c2ccc(F)cc2)c2ccc(F)cc2)CC1` was run?
Answer: inactive

Question: `CN1CCN(C2Cc3ccccc3Sc3ccc(Cl)cc32)CC1` (configuration not stated) was tested. Which Potency did it give?
Answer: inconclusive: 28.2 µM [activator, partial curve, poor fit]

target: Cytochrome P450 2D6 (Homo sapiens) (UniProt P10635); assay: Cytochrome P450 Family 2 Subfamily D Member 6 (CYP2D6) small molecule antagonists: luciferase reporter qHTS assay (AID 1671196); conditions: P450-Glo CYP2D6 enzyme assay, luciferin luminescence, 1 h; series mostly up to 115 µM; note: nearly all actives have a fitted effect of over 50% in size
In short: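 Inhibition of CYP2D6 was gauged by loss of luminescence, since light produced tracks the luciferin generated from a proluciferin substrate. A 10 min room-temperature preincubation preceded 1 h NADPH-supported turnover.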

UniProt P10635, sequence (P10635 whole entry, looked up): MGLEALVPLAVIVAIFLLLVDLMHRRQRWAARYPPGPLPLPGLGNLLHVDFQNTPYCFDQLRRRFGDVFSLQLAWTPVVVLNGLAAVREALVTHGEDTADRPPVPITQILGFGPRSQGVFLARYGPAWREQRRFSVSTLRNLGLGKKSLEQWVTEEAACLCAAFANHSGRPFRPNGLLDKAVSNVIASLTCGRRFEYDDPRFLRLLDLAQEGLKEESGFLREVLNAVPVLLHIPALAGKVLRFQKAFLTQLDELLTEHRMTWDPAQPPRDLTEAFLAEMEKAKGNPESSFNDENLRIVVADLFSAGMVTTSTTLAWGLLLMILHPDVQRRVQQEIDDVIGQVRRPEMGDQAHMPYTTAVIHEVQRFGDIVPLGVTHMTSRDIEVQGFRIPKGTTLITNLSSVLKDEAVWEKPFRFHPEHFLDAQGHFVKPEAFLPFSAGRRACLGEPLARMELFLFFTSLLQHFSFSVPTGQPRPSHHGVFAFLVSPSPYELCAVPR

Question: Which Potency does the source give for `O=Cc1ccccc1C=O` here?
Answer: inactive

Question: Which Potency does the source give for `CCCCCCCOC(=O)CCC` here?
Answer: active: 20 µM

Question: `COc1cccc2c1C(=O)c1c(O)c3c(c(O)c1C2=O)C[C@@](O)(C(=O)CO)C[C@@H]3O[C@H]1C[C@H](N)[C@H](O)[C@H](C)O1` was tested. Which Potency did it give?
Answer: inconclusive: 17.8 µM [inhibitor, partial curve] and inconclusive: 15.5 µM [inhibitor, partial curve]

Question: `COC(=O)C1=C(C)NC(COC(N)=O)=C(C(=O)OC(C)C)C1c1cccc(Cl)c1Cl` (configuration not stated) was tested. Which Potency did it give?
Answer: inconclusive: 34.7 µM [inhibitor, partial curve]

Question: How did the Potency turn out when `CN(C)c1ccc(N=Nc2ccccc2C(=O)O)cc1` was run?
Answer: active: 39.9 µM

Question: With `C=C(C)C1CC=C(C)CC1` (configuration not stated) as the molecule, how does the Potency read?
Answer: inconclusive: 61.8 µM [inhibitor, partial curve, poor fit]

Question: Which Potency does the source give for `C1CNCCN1` here?
Answer: active: 32.6 µM and inactive and active: 2.03 µM

Question: `CCCCCCCCCCCCN1CCCCCC1=O` was tested. Which Potency did it give?
Answer: inconclusive: 63.3 µM [inhibitor, partial curve, poor fit]

Question: With `O=C1NCCN1CCN1CCC(c2cn(-c3ccc(F)cc3)c3ccc(Cl)cc23)CC1` as the molecule, how does the Potency read?
Answer: active: 4.36 µM

Question: How did the Potency turn out when `N=C1C=CC(=C(c2ccc(N)cc2)c2ccc(N)cc2)C=C1` was run?
Answer: active: 6.33 µM

Question: For `O=C(O)C1(C(=O)Nc2ccc(Cl)cc2Cl)CC1`, which Potency is on record?
Answer: inconclusive: 39.9 µM [inhibitor, partial curve]

Question: `CN(C)CCOC(c1ccccc1)c1ccc(Br)cc1` (configuration not stated) was tested. Which Potency did it give?
Answer: active: 1.55 µM

Question: Which Potency does the source give for `N#CSc1ccc(N)c([N+](=O)[O-])c1` here?
Answer: inconclusive: 35.8 µM [inhibitor, partial curve]

Question: `O=C(O)c1cc(N=Nc2ccc([N+](=O)[O-])cc2)ccc1O` was tested. Which Potency did it give?
Answer: active: 69.7 µM
